Some of the results follow.
B1: ENSG00000198589:be:win_2101|CDS|ENSG00000198589|bound_else_gene|NA|bound_elsewhere_windowed (ssRNA)
RNA: GGGAGUUCUACAGUCCGACGAUCGUUGCAUUAAUGUCAGAACACCCUAACUCUAUGAUUCCUGCUUUUGACCAAAGGAAUGGGUUACGUGUUAUCUACAAACUUCUGGCAUCGAAAAGUGAAGGAAUCAGGGUACAAGCUCUUCAACAGAGGAUUGAGCAUCA
B2: chr8:143915506:143915607:-|3pUTR|ENSG00000178209|msi1|total|mutant (ssRNA)
RNA: GGGAGUUCUACAGUCCGACGAUCCCCCACACUCACUCCUGAGACCCCUGGCCUCCGGCGUCAGCCUCCAGCCUCUGUUCCCCCCGUAAGUGCCUUCCAUGUCGGCCUCUAACCCCAGGCCCCGAGGACCCAGACCCAGUGGGGCAACAGAGGAUUGAGCAUCA
B3: chr1:43978039:43978149:+|3pUTR|ENSG00000117410|unk|FALSE|unique (ssRNA)
RNA: GGGAGUUCUACAGUCCGACGAUCGGCCGUGCCUCACUUUUAUUUAUUGCUGGUUUUCCUGGGACAGCUGGAGCUGUGUCCCUUAGCCUUUCAGAGGCUUGGUGUUCAGGGCCCUCCCUGCACUCCCCUCUUGCUGCGUGUUGACAACAGAGGAUUGAGCAUCA
B4: chr1:46316673:46316776:+|3pUTR|ENSG00000173660|unk|total|mutant (ssRNA)
RNA: GGGAGUUCUACAGUCCGACGAUCUGUUUCUUAUUUGUGUAACUGUAAGUUCACAUGAACCUCAUGGGUUUGGCUCCGGCUGGCCGCUUCUAUGUAAUUCGCAAUGAUUCCAUCUAAAUAAAAGUUCUAUGAUCUGCAAACCUGCAACAGAGGAUUGAGCAUCA
B5: chr18:35366693:35369214:-|three_prime_utr|ENSG00000186496|control|control|control (ssRNA)
RNA: GGGAGUUCUACAGUCCGACGAUCCAAAGCAUUUACUCAGAGCUAUUUCAGCACAAGGGAAGACACCAGAUGCAAACGCUCCUUAGUACAAAUCAGUGGUCUUAGUAAGCACCAGUCUCCUUUCAAGACUCAUGAAAGCCACAGCAACAGAGGAUUGAGCAUCA
B6: chr2:27433287:27433389:+|CDS|ENSG00000115216|unk|FALSE|unique (ssRNA)
RNA: GGGAGUUCUACAGUCCGACGAUCUUCCAGCAUGUCGGAGGGGGAGUCCCAGACAGUACUUAGCAGUGGCUCAGACCCAAAGGUAGAAUCCUCAUCUUCAGCUCCUGGCCUGACAUCAGUGUCACCUCCUGUGACCUCCACAACCAACAGAGGAUUGAGCAUCA
B7: chr7:101138466:101138856:+|3pUTR|ENSG00000106366|msi1|total|mutant (ssRNA)
RNA: GGGAGUUCUACAGUCCGACGAUCGAGUGGGGGGACAGAGACUCAGAUGAGGACAGAGUGGUUUCCAAUGUGUUCAACCGAUUCCGGAGCAGAAAUGCAAGGGGCUGCAUGACCUACCAGGACAGAACUUUCCCCAAUUACAGGCAACAGAGGAUUGAGCAUCA
B8: chr14:100884374:100884478:-|CDS|ENSG00000254656|unk|total|mutant (ssRNA)
RNA: GGGAGUUCUACAGUCCGACGAUCGAGGAGUCAUGCAACGGUUCACACCAGGCAAGGGGGGAUCCACUCAGUGGAGCAUCUGACCGGAUGAAAGAAGCAUCAGUCAACCCAUCGGGAGCCCGAGAAGAACAAGAGGCUCACACUCAACAGAGGAUUGAGCAUCA
B9: chr12:76029359:76029534:-|3pUTR|ENSG00000139289|msi1|total|mutant (ssRNA)
RNA: GGGAGUUCUACAGUCCGACGAUCAGAAGUUUAAAAAGCUAAAAGUUAAAAAUGGUGUAAUUAUGAAAAUCUAACACUCAAGACCGUUUCUAAAAGGAAAUCAGCCGUUAAGGAUACCUGAUUUCAAAAUAUUUAAAGCAUAACCAACAGAGGAUUGAGCAUCA
B10: chr20:38750096:38750197:+|CDS|ENSG00000101442|unk|total|mutant (ssRNA)
RNA: GGGAGUUCUACAGUCCGACGAUCGCAAAUGAUGUCUGAGCUUCUUUUUGAGUGCUACGGGAUUCCCAAGGUUGCCUAUGGAACCGACAGCCUCUUCAGCUUCUACCACAAUAAGCCAAAGAACUCGAUGUGCAGUGGGCUAAUCAACAGAGGAUUGAGCAUCA
B11: ENSG00000198589:be:win_5851|CDS|ENSG00000198589|bound_else_gene|NA|bound_elsewhere_windowed (ssRNA)
RNA: GGGAGUUCUACAGUCCGACGAUCACUCAACUAAUCCAGAAAAUUAUCAACAUUCUCACAGACAAGCAUGGAGCCUGGGGAAAUUCUGCAGUGAGUCGUCCUCUUGAGUUCUGGCGCCUUGACUACUGGGAAGAUGACUUGCGGCAACAGAGGAUUGAGCAUCA
B12: chr10:128098466:128098636:-|3pUTR|ENSG00000148773|msi1|FALSE|unique (ssRNA)
RNA: GGGAGUUCUACAGUCCGACGAUCUCCUUUCCUUUCUGAAAAUAAAGUUUUGUGCUUUGGAGAAUGACUCGUGAGCACAUCUUUAGGGACCAAGAGUGACUUUCUGUAAGGAGUGACUCGUGGCUUGCCUUGGUCUCUUGGGAACAACAGAGGAUUGAGCAUCA
B13: chr12:79773885:79773986:-|3pUTR|ENSG00000058272|msi1|total|mutant (ssRNA)
RNA: GGGAGUUCUACAGUCCGACGAUCGGUUAUUUAUUCUUUGUAUCUAAAACUGAACAGCUACUGUGCUAUAUUGAUUUUAUUGGCCGUAUUGAGCAGACCUUGUUUCUGCAUGAAACCCGUUGCAAAACCCACUAUUUUGGAAAUCAACAGAGGAUUGAGCAUCA
B14: chr10:25598329:25598431:+|CDS|ENSG00000151025|unk|total|mutant (ssRNA)
RNA: GGGAGUUCUACAGUCCGACGAUCAUCGAUGUUACAGAAGUCUCUCAGUGUCACCGCAAGCGCCAAGGAGAAGACUCUUGGAUCCGCUGGGAAAACCCAAACAGCAGGUGUGGAAGAACGCACUAAAUCCCAGAAACCUUUGCCCAACAGAGGAUUGAGCAUCA
B15: chr12:6347307:6347408:-|3pUTR|ENSG00000111319|msi1|total|mutant (ssRNA)
RNA: GGGAGUUCUACAGUCCGACGAUCGUCUGCUCCUCCUCUUGAACUUGGGUGGGAAACCCCACCCAAAAGCCCCCUUUGUUACUCCGGCAAUUCCCCUUCCCUGACUCCCGAGGGCCCGGGCCCGAGCAGACCCGGGUAAGUAAACAACAGAGGAUUGAGCAUCA
B16: chr14:96489241:96489342:+|3pUTR|ENSG00000140057|unk|FALSE|unique (ssRNA)
RNA: GGGAGUUCUACAGUCCGACGAUCUAAAGUGUAUAAUUCAGUGGCACUAAGUUCAUUCACAAUGAUCUGCAGCCACCACUAUCUAGUCCAGAACUUUCUCAUCACCCCAAAUGGAAACCCAGCACCUAUUAGGCAGUCACGCUCCAACAGAGGAUUGAGCAUCA
B17: chr10:126015758:126015859:-|3pUTR|ENSG00000148848|msi1|total|mutant (ssRNA)
RNA: GGGAGUUCUACAGUCCGACGAUCAAAUACUCAGAUAAGGUAAAAUGCCAUGAUGCCUCUGUCUUCUGGACUGGUUUUCACAUCCGAAGACAAUUGACAACAGUUACAUAAUUCACUCUGAGUGUUUUAUGAGAAAGCCUUCUUCAACAGAGGAUUGAGCAUCA
B18: chr8:35759345:35759454:+|CDS|ENSG00000156687|unk|total|mutant (ssRNA)
RNA: GGGAGUUCUACAGUCCGACGAUCCAUCAAGGUGGACAGCUCCUGGAAGAACCAAAAUUGCUGCAUUUCAAAGGGAAUACCUUCCGUCUUCAGAUUUCUGUCCUUGAUAUUCCCCCAUUCCUCUGGAGAAUUAAACCAUUCACUCAACAGAGGAUUGAGCAUCA
B19: chr1:9614578:9614679:+|3pUTR|ENSG00000188807|msi1|total|mutant (ssRNA)
RNA: GGGAGUUCUACAGUCCGACGAUCUCCAGCUGCCAGCAAUGGUUCCAACUCGGAGGCAGCGCCUCUUGGUCCCCAUUUCUGUACCGCAGGCGUGUGUGUGUGUGUCGAGGUUUUUUAUUUUUUGCUUAAUCAAACUCCAUUCCCCAACAGAGGAUUGAGCAUCA
B20: chr7:116918052:116918157:+|3pUTR|ENSG00000198898|unk|FALSE|unique (ssRNA)
RNA: GGGAGUUCUACAGUCCGACGAUCUUUUCAUUUUGUUUGUUCUAAGAGGAUUGAAAAUCAGUUUAGUUUAAAUGUCUUUCUGUUAGGCCUUUCUUUCUUACAAUGAAGAGAUGAUUCUUCUAGUUUAUGGUUAAAAGUUUUUGACAACAGAGGAUUGAGCAUCA
B21: chr9:88129304:88129631:-|three_prime_utr|ENSG00000177910|control|control|control (ssRNA)
RNA: GGGAGUUCUACAGUCCGACGAUCGACCAAGGCACUGUCUUUUUCAGGGAGGUAUCUAAUUUGGUCAGUCACAAAUUCCUUUUUAGCCUUCCCUAGAGAAAAACAAGUCACCAAGAAAAAAUUCACUCUAUGUAGAGGAAAAGUCAACAGAGGAUUGAGCAUCA
B22: chr12:50748518:50748596:+|3pUTR|ENSG00000066084|msi1_unk|total|mutant (ssRNA)
RNA: GGGAGUUCUACAGUCCGACGAUCUCAAAUUCAAACUACAGUACUGUGUAAUUAUGUAUAAAGUUUUUUUAUUUAUUUGAAGUCCGACCCGAUAUACGUUUUUAAAUUUAACAUCUGGCUGGACAGUGUUCUAUUAACUCAUUGCAACAGAGGAUUGAGCAUCA

What follows are binders tested against MSI1 full-length (mouse, UniProt Q61474 1-362) (assay: nsRBNS (natural sequence RNA bind-n-seq); RBNS binding buffer (assumed for nsRBNS): 25 mM Tris pH 7.5, 150 mM KCl, 3 mM MgCl2, 0.01% Triton X-100, 500 ug/ml BSA, 20 U/ml SUPERase-In, 4 C; UNK is unkempt and MSI1 is Musashi-1; names of the RNAs are library labels; protein concentration not given here; high values mean tight binding).
UniProt Q61474, sequence (Q61474 whole entry): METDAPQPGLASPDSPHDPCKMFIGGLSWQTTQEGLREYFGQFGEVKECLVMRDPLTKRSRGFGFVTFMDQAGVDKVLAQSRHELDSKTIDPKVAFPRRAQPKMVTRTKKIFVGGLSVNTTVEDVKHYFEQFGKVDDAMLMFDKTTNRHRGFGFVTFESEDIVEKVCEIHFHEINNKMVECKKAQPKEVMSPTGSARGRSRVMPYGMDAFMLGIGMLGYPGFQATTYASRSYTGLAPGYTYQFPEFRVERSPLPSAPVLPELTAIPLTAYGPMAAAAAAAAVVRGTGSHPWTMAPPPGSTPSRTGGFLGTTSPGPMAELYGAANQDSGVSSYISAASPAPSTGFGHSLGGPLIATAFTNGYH

Binder	binding signal
B1	0.41 enrichment R
B2	0.681 enrichment R
B3	0.579 enrichment R
B4	0.368 enrichment R
B5	1.07 enrichment R
B6	0.967 enrichment R
B7	0.559 enrichment R
B8	0.506 enrichment R
B9	2.73 enrichment R
B10	0.312 enrichment R
B11	0.597 enrichment R
B12	0.327 enrichment R
B13	0.795 enrichment R
B14	0.392 enrichment R
B15	0.71 enrichment R
B16	0.983 enrichment R
B17	0.199 enrichment R
B18	0.284 enrichment R
B19	0.582 enrichment R
B20	11.9 enrichment R
B21	0.228 enrichment R
B22	1.59 enrichment R
